# Measured values taken from the supplement of paper PMC8728848.
# This is one part of the list.
# B1: Mermaid3 (Stilbonema majum) (protein)
# chain: MGSSHHHHHHSSGLVPRGSHMAASGWLRSPQGTVVKLYRRSLSWSKADEFCKDVDGRLVVDRTADMHLFLIKNVLKEKKSRVWVGLRRTASHSRTWIWSDGTRQNEGDLDANLWLRDEPNDAAGEEECALFMYSPWEKAWGLNDYLCRGGCRNYQFICEKWIR
# Legend:
# Experiment in all cases: glycan array binding signal (z-score within array); higher = stronger binding
# Conditions in all cases: glycan notation: IUPAC condensed, linker removed
# [1] = target: GlcNAc(b1-2)Gal(b1-3)GalNAc
# Method in brief: (§1)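 From the Consortium for Functional Glycomics database, 3228 arrays were curated, keeping only those whose protein sequence was available. Binding is given as a within-array Z-score averaged across arrays sharing a protein sequence and across linkers. Negative Z-scores can be read as non-binding.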
# [2] = target: GlcNAc(b1-2)Man(a1-3)[GlcNAc(b1-2)Man(a1-6)]Man(b1-4)GlcNAc(b1-4)GlcNAc
# Method in brief: as §1
# [3] = target: GlcNAc(b1-2)Man(a1-3)[GlcNAc(b1-2)Man(a1-6)]Man(b1-4)GlcNAc(b1-4)[Fuc(a1-6)]GlcNAc
# Method in brief: as §1
# [4] = target: GlcNAc(b1-2)Man(a1-3)[GlcNAc(b1-4)][GlcNAc(b1-2)Man(a1-6)]Man(b1-4)GlcNAc(b1-4)GlcNAc
# Method in brief: as §1
# [5] = target: GlcNAc(b1-2)Man(a1-3)[GlcNAc(b1-4)][GlcNAc(b1-2)Man(a1-6)]Man(b1-4)GlcNAc(b1-4)[Fuc(a1-6)]GlcNAc
# Method in brief: as §1
# [6] = target: GlcNAc(b1-2)[GlcNAc(b1-4)]Man(a1-3)[GlcNAc(b1-2)Man(a1-6)]Man(b1-4)GlcNAc(b1-4)GlcNAc
# Method in brief: as §1
# [7] = target: GlcNAc(b1-2)[GlcNAc(b1-4)]Man(a1-3)[GlcNAc(b1-4)][GlcNAc(b1-2)Man(a1-6)]Man(b1-4)GlcNAc(b1-4)GlcNAc
# Method in brief: as §1
# [8] = target: GlcNAc(b1-2)[GlcNAc(b1-4)]Man(a1-3)[GlcNAc(b1-4)][GlcNAc(b1-2)[GlcNAc(b1-6)]Man(a1-6)]Man(b1-4)GlcNAc(b1-4)GlcNAc
# Method in brief: as §1
# [9] = target: GlcNAc(b1-2)[GlcNAc(b1-4)]Man(a1-3)[GlcNAc(b1-4)][GlcNAc(b1-2)[GlcNAc(b1-6)]Man(a1-6)]Man(b1-4)GlcNAc(b1-4)[Fuc(a1-6)]GlcNAc
# Method in brief: as §1
# [10] = target: GlcNAc(b1-2)[GlcNAc(b1-6)]Man(a1-6)[GlcNAc(b1-2)Man(a1-3)]Man(b1-4)GlcNAc(b1-4)GlcNAc
# Method in brief: as §1
# [11] = target: GlcNAc(b1-2)[GlcNAc(b1-6)]Man(a1-6)[GlcNAc(b1-2)Man(a1-3)]Man(b1-4)GlcNAc(b1-4)[Fuc(a1-6)]GlcNAc
# Method in brief: as §1
# [12] = target: GlcNAc(b1-2)[GlcNAc(b1-6)]Man(a1-6)[GlcNAc(b1-4)][GlcNAc(b1-2)Man(a1-3)]Man(b1-4)GlcNAc(b1-4)GlcNAc
# Method in brief: as §1
# GlcNAc(b1-3)Fuc = target: GlcNAc(b1-3)Fuc
# Method in brief: as §1
# GlcNAc(b1-3)Gal = target: GlcNAc(b1-3)Gal
# Method in brief: as §1
# [13] = target: GlcNAc(b1-3)Gal(b1-3)GalNAc
# Method in brief: as §1
# GlcNAc(b1-3)Gal(b1-4)Glc = target: GlcNAc(b1-3)Gal(b1-4)Glc
# Method in brief: as §1
# [14] = target: GlcNAc(b1-3)Gal(b1-4)GlcNAc
# Method in brief: as §1
# [15] = target: GlcNAc(b1-3)Gal(b1-4)GlcNAc(b1-2)Man(a1-3)[GlcNAc(b1-3)Gal(b1-4)GlcNAc(b1-2)Man(a1-6)]Man(b1-4)GlcNAc(b1-4)GlcNAc
# Method in brief: as §1
# [16] = target: GlcNAc(b1-3)Gal(b1-4)GlcNAc(b1-2)Man(a1-3)[GlcNAc(b1-3)Gal(b1-4)GlcNAc(b1-2)Man(a1-6)]Man(b1-4)GlcNAc(b1-4)[Fuc(a1-6)]GlcNAc
# Method in brief: as §1
# [17] = target: GlcNAc(b1-3)Gal(b1-4)GlcNAc(b1-2)[GlcNAc(b1-3)Gal(b1-4)GlcNAc(b1-6)]Man(a1-6)[GlcNAc(b1-3)Gal(b1-4)GlcNAc(b1-2)Man(a1-3)]Man(b1-4)GlcNAc(b1-4)GlcNAc
# Method in brief: as §1
# [18] = target: GlcNAc(b1-3)Gal(b1-4)GlcNAc(b1-3)Gal(b1-4)GlcNAc
# Method in brief: as §1
# [19] = target: GlcNAc(b1-3)Gal(b1-4)GlcNAc(b1-3)Gal(b1-4)GlcNAc(b1-2)Man(a1-3)[GlcNAc(b1-3)Gal(b1-4)GlcNAc(b1-3)Gal(b1-4)GlcNAc(b1-2)Man(a1-6)]Man(b1-4)GlcNAc(b1-4)GlcNAc
# Method in brief: as §1
# [20] = target: GlcNAc(b1-3)Gal(b1-4)GlcNAc(b1-3)Gal(b1-4)GlcNAc(b1-2)Man(a1-3)[GlcNAc(b1-3)Gal(b1-4)GlcNAc(b1-3)Gal(b1-4)GlcNAc(b1-2)Man(a1-6)]Man(b1-4)GlcNAc(b1-4)[Fuc(a1-6)]GlcNAc
# Method in brief: as §1
# [21] = target: GlcNAc(b1-3)Gal(b1-4)GlcNAc(b1-3)Gal(b1-4)GlcNAc(b1-2)[GlcNAc(b1-3)Gal(b1-4)GlcNAc(b1-3)Gal(b1-4)GlcNAc(b1-6)]Man(a1-6)[GlcNAc(b1-3)Gal(b1-4)GlcNAc(b1-3)Gal(b1-4)GlcNAc(b1-2)Man(a1-3)]Man(b1-4)GlcNAc(b1-4)[Fuc(a1-6)]GlcNAc
# Method in brief: as §1
# [22] = target: GlcNAc(b1-3)Gal(b1-4)GlcNAc(b1-3)Gal(b1-4)GlcNAc(b1-3)Gal(b1-4)GlcNAc(b1-2)Man(a1-3)[GlcNAc(b1-3)Gal(b1-4)GlcNAc(b1-3)Gal(b1-4)GlcNAc(b1-3)Gal(b1-4)GlcNAc(b1-2)Man(a1-6)]Man(b1-4)GlcNAc(b1-4)GlcNAc
# Method in brief: as §1
# [23] = target: GlcNAc(b1-3)Gal(b1-4)GlcNAc(b1-3)Gal(b1-4)GlcNAc(b1-3)Gal(b1-4)GlcNAc(b1-2)Man(a1-3)[GlcNAc(b1-3)Gal(b1-4)GlcNAc(b1-3)Gal(b1-4)GlcNAc(b1-3)Gal(b1-4)GlcNAc(b1-2)Man(a1-6)]Man(b1-4)GlcNAc(b1-4)[Fuc(a1-6)]GlcNAc
# Method in brief: as §1
# [24] = target: GlcNAc(b1-3)Gal(b1-4)GlcNAc(b1-3)Gal(b1-4)GlcNAc(b1-3)Gal(b1-4)GlcNAc(b1-2)[GlcNAc(b1-3)Gal(b1-4)GlcNAc(b1-3)Gal(b1-4)GlcNAc(b1-3)Gal(b1-4)GlcNAc(b1-6)]Man(a1-6)[GlcNAc(b1-3)Gal(b1-4)GlcNAc(b1-3)Gal(b1-4)GlcNAc(b1-3)Gal(b1-4)GlcNAc(b1-2)Man(a1-3)]Man(b1-4)GlcNAc(b1-4)[Fuc(a1-6)]GlcNAc
# Method in brief: as §1
# [25] = target: GlcNAc(b1-3)Gal(b1-4)GlcNAc(b1-3)Gal(b1-4)GlcNAc(b1-3)Gal(b1-4)GlcNAc(b1-3)Gal(b1-4)GlcNAc(b1-2)Man(a1-3)[GlcNAc(b1-3)Gal(b1-4)GlcNAc(b1-3)Gal(b1-4)GlcNAc(b1-3)Gal(b1-4)GlcNAc(b1-3)Gal(b1-4)GlcNAc(b1-2)Man(a1-6)]Man(b1-4)GlcNAc(b1-4)GlcNAc
# Method in brief: as §1
# [26] = target: GlcNAc(b1-3)Gal(b1-4)GlcNAc(b1-3)Gal(b1-4)GlcNAc(b1-3)Gal(b1-4)GlcNAc(b1-3)Gal(b1-4)GlcNAc(b1-2)Man(a1-3)[GlcNAc(b1-3)Gal(b1-4)GlcNAc(b1-3)Gal(b1-4)GlcNAc(b1-3)Gal(b1-4)GlcNAc(b1-3)Gal(b1-4)GlcNAc(b1-2)Man(a1-6)]Man(b1-4)GlcNAc(b1-4)[Fuc(a1-6)]GlcNAc
# Method in brief: as §1
# [27] = target: GlcNAc(b1-3)Gal(b1-4)GlcNAc(b1-3)Gal(b1-4)GlcNAc(b1-3)Gal(b1-4)GlcNAc(b1-3)Gal(b1-4)GlcNAc(b1-2)[GlcNAc(b1-3)Gal(b1-4)GlcNAc(b1-3)Gal(b1-4)GlcNAc(b1-3)Gal(b1-4)GlcNAc(b1-3)Gal(b1-4)GlcNAc(b1-6)]Man(a1-6)[GlcNAc(b1-3)Gal(b1-4)GlcNAc(b1-3)Gal(b1-4)GlcNAc(b1-3)Gal(b1-4)GlcNAc(b1-3)Gal(b1-4)GlcNAc(b1-2)Man(a1-3)]Man(b1-4)GlcNAc(b1-4)[Fuc(a1-6)]GlcNAc
# Method in brief: as §1
# [28] = target: GlcNAc(b1-3)Gal(b1-4)GlcNAc(b1-3)Gal(b1-4)GlcNAc(b1-3)GalNAc
# Method in brief: as §1
# [29] = target: GlcNAc(b1-3)Gal(b1-4)GlcNAc(b1-3)GalNAc
# Method in brief: as §1
# [30] = target: GlcNAc(b1-3)Gal(b1-4)GlcNAc(b1-3)[GlcNAc(b1-3)Gal(b1-4)GlcNAc(b1-3)]GalNAc
# Method in brief: as §1
# [31] = target: GlcNAc(b1-3)Gal(b1-4)GlcNAc(b1-6)[Gal(b1-3)]GalNAc
# Method in brief: as §1
# [32] = target: GlcNAc(b1-3)Gal(b1-4)GlcNAc(b1-6)[GlcNAc(b1-3)Gal(b1-3)]GalNAc
# Method in brief: as §1
# [33] = target: GlcNAc(b1-3)Gal(b1-4)GlcNAc(b1-6)[GlcNAc(b1-3)]Gal(b1-4)GlcNAc
# Method in brief: as §1
# GlcNAc(b1-3)GalNAc = target: GlcNAc(b1-3)GalNAc
# Method in brief: as §1
# GlcNAc(b1-3)Man = target: GlcNAc(b1-3)Man
# Method in brief: as §1
# [34] = target: GlcNAc(b1-3)[GlcNAc(b1-4)][GlcNAc(b1-6)]GlcNAc
# Method in brief: as §1
# [35] = target: GlcNAc(b1-3)[GlcNAc(b1-6)]Gal(b1-4)GlcNAc
# Method in brief: as §1
# [36] = target: GlcNAc(b1-3)[GlcNAc(b1-6)]GalNAc
# Method in brief: as §1
# [37] = target: GlcNAc(b1-4)Gal(b1-4)GlcNAc
# Method in brief: as §1
# GlcNAc(b1-4)GlcNAc = target: GlcNAc(b1-4)GlcNAc
# Method in brief: as §1
# [38] = target: GlcNAc(b1-4)GlcNAc(b1-4)GlcNAc
# Method in brief: as §1
# [39] = target: GlcNAc(b1-4)GlcNAc(b1-4)GlcNAc(b1-4)GlcNAc(b1-4)GlcNAc
# Method in brief: as §1
binder,measurement,setting,value
B1,glycan array binding signal (z-score),[1],-0.193
same,glycan array binding signal (z-score),[2],-0.276
same,glycan array binding signal (z-score),[3],-0.369
same,glycan array binding signal (z-score),[4],0.111
same,glycan array binding signal (z-score),[5],-0.468
same,glycan array binding signal (z-score),[6],-0.823
same,glycan array binding signal (z-score),[7],-0.724
same,glycan array binding signal (z-score),[8],-0.781
same,glycan array binding signal (z-score),[9],-0.644
same,glycan array binding signal (z-score),[10],-0.244
same,glycan array binding signal (z-score),[11],-0.517
same,glycan array binding signal (z-score),[12],-0.397
same,glycan array binding signal (z-score),GlcNAc(b1-3)Fuc,0.289
same,glycan array binding signal (z-score),GlcNAc(b1-3)Gal,-0.533
same,glycan array binding signal (z-score),[13],-0.016
same,glycan array binding signal (z-score),GlcNAc(b1-3)Gal(b1-4)Glc,-0.547
same,glycan array binding signal (z-score),[14],-0.487
same,glycan array binding signal (z-score),[15],-0.371
same,glycan array binding signal (z-score),[16],0.725
same,glycan array binding signal (z-score),[17],0.509
same,glycan array binding signal (z-score),[18],-0.039
same,glycan array binding signal (z-score),[19],-0.037
same,glycan array binding signal (z-score),[20],0.262
same,glycan array binding signal (z-score),[21],0.113
same,glycan array binding signal (z-score),[22],-0.513
same,glycan array binding signal (z-score),[23],0.681
same,glycan array binding signal (z-score),[24],-0.173
same,glycan array binding signal (z-score),[25],0.139
same,glycan array binding signal (z-score),[26],-0.316
same,glycan array binding signal (z-score),[27],-0.193
same,glycan array binding signal (z-score),[28],-0.412
same,glycan array binding signal (z-score),[29],-0.391
same,glycan array binding signal (z-score),[30],-0.354
same,glycan array binding signal (z-score),[31],-0.277
same,glycan array binding signal (z-score),[32],-0.346
same,glycan array binding signal (z-score),[33],-0.369
same,glycan array binding signal (z-score),GlcNAc(b1-3)GalNAc,-0.431
same,glycan array binding signal (z-score),GlcNAc(b1-3)Man,5.11
same,glycan array binding signal (z-score),[34],-0.21
same,glycan array binding signal (z-score),[35],-0.24
same,glycan array binding signal (z-score),[36],-0.276
same,glycan array binding signal (z-score),[37],0.202
same,glycan array binding signal (z-score),GlcNAc(b1-4)GlcNAc,1.75
same,glycan array binding signal (z-score),[38],0.343
same,glycan array binding signal (z-score),[39],1.14
